These results are taken from patent publication US20100210602A1, “PhoU (PerF), A P[…] INVOLVED IN [sequence] FORMATION AND TOLERANCE TO MULTIPLE ANTIBIOTICS AND [sequence] AS A DRUG TARGET FOR [sequence] BACTERIA” (priority 2006, published 2010).

Where “and” joins values, the source holds several entries; their conditions need not be identical. Equal entries are not always repeated. Where two headings read alike, the source gives them in different places.

Holding throughout (type): cell-based
The subject of assay [1] is W3110ΔphoU containing pPhoU118.
The next assay has as its system W3110ΔphoU. As to conditions: ampicillin 100 ug/ml.
In assay [2] the test system is W3110ΔphoU containing pPhoUA51H. The settings on record: ampicillin 100 ug/ml, 1 mM IPTG.
The subject of a further assay is W3110. The settings on record: ampicillin 100 ug/ml.

Turning to `CC1(C)S[C@@H]2[C@H](NC(=O)[C@H](N)c3ccccc3)C(=O)N2[C@H]1C(=O)O` [Ampicillin, ampicillin], the “CFU after ampicillin exposure” value in assay [1] is 5.5 × 10^8 CFU and 5 × 10^8 CFU; with W3110ΔphoU (Fe3+ 250 uM), 1 × 10^8 CFU; with W3110ΔphoU (MOPS, N/A (no Pi, no Fe3+)), 1 × 10^8 CFU; in the assay on W3110ΔphoU (Pi 0.01 mM) it was 1 × 10^7 CFU; with W3110ΔphoU (Pi 0.01 mM, Fe3+ 250 uM) it was 1 × 10^8 CFU; in the assay on W3110ΔphoU (Pi 2 mM), 1 × 10^5 CFU. The “CFU after ampicillin exposure” value with W3110ΔphoU (Pi 2 mM, Fe3+ 250 uM) was 1 × 10^7 CFU; in assay [2] (MOPS, N/A (no Pi, no Fe3+)), 4 × 10^8 CFU; in assay [2] (Pi 2 mM), 3 × 10^5 CFU; with W3110 (Fe3+ 250 uM), 5 × 10^8 CFU; in the assay with W3110 (MOPS, N/A (no Pi, no Fe3+)) it was 5 × 10^8 CFU; with W3110 (Pi 0.01 mM), 3 × 10^8 CFU. Moreover, the “CFU after ampicillin exposure” value is reported as 5 × 10^8 CFU in the assay on W3110 (Pi 0.01 mM, Fe3+ 250 uM); 9 × 10^6 CFU with W3110 (Pi 2 mM); 5 × 10^8 CFU in the assay on W3110 (Pi 2 mM, Fe3+ 250 uM).
